{"source": "the supplement of paper PMC8728848", "assay_in_all_cases": "glycan array binding signal (z-score within array); higher = stronger binding", "conditions_in_all_cases": "glycan notation: IUPAC condensed, linker removed", "key": {"Gal6S(b1-4)Glc": {"molecular_target": "Gal6S(b1-4)Glc", "summary_of_the_method": "(§1)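 Glycan array data came from 3228 arrays in the Consortium for Functional Glycomics database, and only arrays with an available protein sequence were kept. Glycan names were put into IUPAC-condensed notation, and columns mapping to the same glycan were averaged. The binding signal is a within-array Z-score, averaged across arrays of one protein sequence run at different concentrations or buffers and across linkers. A negative Z-score can be read as non-binding.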"}, "Gal6S(b1-4)Glc6S": {"molecular_target": "Gal6S(b1-4)Glc6S", "summary_of_the_method": "as §1"}, "Gal6S(b1-4)GlcNAc": {"molecular_target": "Gal6S(b1-4)GlcNAc", "summary_of_the_method": "as §1"}, "Gal6S(b1-4)GlcNAc6S": {"molecular_target": "Gal6S(b1-4)GlcNAc6S", "summary_of_the_method": "as §1"}, "GalNAc(a1-3)Gal": {"molecular_target": "GalNAc(a1-3)Gal", "summary_of_the_method": "as §1"}, "GalNAc(a1-3)GalNAc": {"molecular_target": "GalNAc(a1-3)GalNAc", "summary_of_the_method": "as §1"}, "[1]": {"molecular_target": "GalNAc(a1-3)GalNAc(b1-3)Gal(a1-4)Gal(b1-4)Glc", "summary_of_the_method": "as §1"}, "[2]": {"molecular_target": "GalNAc(a1-3)GalNAc(b1-3)Gal(a1-4)Gal(b1-4)GlcNAc", "summary_of_the_method": "as §1"}, "GalNAc(b1-3)Gal": {"molecular_target": "GalNAc(b1-3)Gal", "summary_of_the_method": "as §1"}, "[3]": {"molecular_target": "GalNAc(b1-3)Gal(a1-4)Gal(b1-4)GlcNAc", "summary_of_the_method": "as §1"}, "[4]": {"molecular_target": "GalNAc(b1-3)Gal(a1-4)Gal(b1-4)GlcNAc(b1-3)Gal(b1-4)Glc", "summary_of_the_method": "as §1"}, "[5]": {"molecular_target": "GalNAc(b1-3)Gal(a1-6)Gal(b1-4)Glc", "summary_of_the_method": "as §1"}, "GalNAc(b1-3)GalNAc": {"molecular_target": "GalNAc(b1-3)GalNAc", "summary_of_the_method": "as §1"}, "GalNAc(b1-3)GlcNAc": {"molecular_target": "GalNAc(b1-3)GlcNAc", "summary_of_the_method": "as §1"}, "GalNAc(b1-4)Gal(b1-4)Glc": {"molecular_target": "GalNAc(b1-4)Gal(b1-4)Glc", "summary_of_the_method": "as §1"}, "GalNAc(b1-4)GlcNAc": {"molecular_target": "GalNAc(b1-4)GlcNAc", "summary_of_the_method": "as §1"}, "[6]": {"molecular_target": "GalNAc(b1-4)GlcNAc(b1-2)Man", "summary_of_the_method": "as §1"}, "[7]": {"molecular_target": "GalNAc(b1-4)GlcNAc(b1-2)Man(a1-3)[GalNAc(b1-4)GlcNAc(b1-2)Man(a1-6)]Man(b1-4)GlcNAc(b1-4)GlcNAc", "summary_of_the_method": "as §1"}, "[8]": {"molecular_target": "GalNAc(b1-4)GlcNAc(b1-3)GalNAc(b1-4)GlcNAc", "summary_of_the_method": "as §1"}, "GalNAc(b1-4)GlcNAc6S": {"molecular_target": "GalNAc(b1-4)GlcNAc6S", "summary_of_the_method": "as §1"}, "GalNAc(b1-6)GalNAc": {"molecular_target": "GalNAc(b1-6)GalNAc", "summary_of_the_method": "as §1"}, "GalNAc3S(b1-4)GlcNAc": {"molecular_target": "GalNAc3S(b1-4)GlcNAc", "summary_of_the_method": "as §1"}, "GalNAc3S(b1-4)GlcNAc3S": {"molecular_target": "GalNAc3S(b1-4)GlcNAc3S", "summary_of_the_method": "as §1"}, "[9]": {"molecular_target": "GalNAc3S(b1-4)[Fuc(a1-3)]GlcNAc", "summary_of_the_method": "as §1"}, "GalNAc4S6S(b1-4)GlcNAc": {"molecular_target": "GalNAc4S6S(b1-4)GlcNAc", "summary_of_the_method": "as §1"}, "GalNAc6S(b1-4)GlcNAc": {"molecular_target": "GalNAc6S(b1-4)GlcNAc", "summary_of_the_method": "as §1"}, "Glc(a1-4)Glc": {"molecular_target": "Glc(a1-4)Glc", "summary_of_the_method": "as §1"}, "[10]": {"molecular_target": "Glc(a1-4)Glc(a1-4)Glc(a1-4)Glc", "summary_of_the_method": "as §1"}, "Glc(a1-6)Glc(a1-6)Glc": {"molecular_target": "Glc(a1-6)Glc(a1-6)Glc", "summary_of_the_method": "as §1"}, "[11]": {"molecular_target": "Glc(a1-6)Glc(a1-6)Glc(a1-6)Glc", "summary_of_the_method": "as §1"}, "Glc(b1-4)Glc": {"molecular_target": "Glc(b1-4)Glc", "summary_of_the_method": "as §1"}, "Glc(b1-6)Glc": {"molecular_target": "Glc(b1-6)Glc", "summary_of_the_method": "as §1"}, "GlcA(b1-3)Gal": {"molecular_target": "GlcA(b1-3)Gal", "summary_of_the_method": "as §1"}, "GlcA(b1-3)GlcNAc": {"molecular_target": "GlcA(b1-3)GlcNAc", "summary_of_the_method": "as §1"}, "GlcA(b1-6)Gal": {"molecular_target": "GlcA(b1-6)Gal", "summary_of_the_method": "as §1"}, "[12]": {"molecular_target": "GlcA3S(b1-3)Gal(b1-4)GlcNAc(b1-2)Man", "summary_of_the_method": "as §1"}, "[13]": {"molecular_target": "GlcA3S(b1-3)Gal(b1-4)GlcNAc(b1-3)Gal(b1-4)Glc", "summary_of_the_method": "as §1"}, "[14]": {"molecular_target": "GlcNAc(a1-3)Gal(b1-4)GlcNAc", "summary_of_the_method": "as §1"}, "[15]": {"molecular_target": "GlcNAc(a1-4)Gal(b1-3)GlcNAc", "summary_of_the_method": "as §1"}, "[16]": {"molecular_target": "GlcNAc(a1-4)Gal(b1-4)GalNAc", "summary_of_the_method": "as §1"}, "[17]": {"molecular_target": "GlcNAc(a1-4)Gal(b1-4)GlcNAc", "summary_of_the_method": "as §1"}, "[18]": {"molecular_target": "GlcNAc(a1-4)Gal(b1-4)GlcNAc(b1-3)Gal(b1-4)Glc", "summary_of_the_method": "as §1"}, "[19]": {"molecular_target": "GlcNAc(a1-4)Gal(b1-4)GlcNAc(b1-3)Gal(b1-4)GlcNAc", "summary_of_the_method": "as §1"}, "[20]": {"molecular_target": "GlcNAc(a1-4)Gal(b1-4)GlcNAc(b1-3)Gal(b1-4)GlcNAc(b1-3)Gal(b1-4)GlcNAc", "summary_of_the_method": "as §1"}, "[21]": {"molecular_target": "GlcNAc(a1-4)Gal(b1-4)GlcNAc(b1-3)Gal(b1-4)[Fuc(a1-3)]GlcNAc(b1-3)Gal(b1-4)[Fuc(a1-3)]GlcNAc", "summary_of_the_method": "as §1"}}, "note": "Some of the results follow."}
{"binder": "CTAEGIKKFEGDGYELFKDNFPAGEKFDNDDTNDQFYTVIF", "note": "[MUB40 (Lactobacillus reuteri)]", "values": [{"measurement": "glycan array binding signal (z-score)", "setting": "Gal6S(b1-4)Glc", "value": 2}, {"measurement": "glycan array binding signal (z-score)", "setting": "Gal6S(b1-4)Glc6S", "value": -0.817}, {"measurement": "glycan array binding signal (z-score)", "setting": "Gal6S(b1-4)GlcNAc", "value": -0.617}, {"measurement": "glycan array binding signal (z-score)", "setting": "Gal6S(b1-4)GlcNAc6S", "value": -0.04}, {"measurement": "glycan array binding signal (z-score)", "setting": "GalNAc(a1-3)Gal", "value": -0.411}, {"measurement": "glycan array binding signal (z-score)", "setting": "GalNAc(a1-3)GalNAc", "value": -0.598}, {"measurement": "glycan array binding signal (z-score)", "setting": "[1]", "value": -0.35}, {"measurement": "glycan array binding signal (z-score)", "setting": "[2]", "value": -0.31}, {"measurement": "glycan array binding signal (z-score)", "setting": "GalNAc(b1-3)Gal", "value": -0.431}, {"measurement": "glycan array binding signal (z-score)", "setting": "[3]", "value": -0.189}, {"measurement": "glycan array binding signal (z-score)", "setting": "[4]", "value": -0.426}, {"measurement": "glycan array binding signal (z-score)", "setting": "[5]", "value": 0.235}, {"measurement": "glycan array binding signal (z-score)", "setting": "GalNAc(b1-3)GalNAc", "value": -0.452}, {"measurement": "glycan array binding signal (z-score)", "setting": "GalNAc(b1-3)GlcNAc", "value": -0.031}, {"measurement": "glycan array binding signal (z-score)", "setting": "GalNAc(b1-4)Gal(b1-4)Glc", "value": -0.468}, {"measurement": "glycan array binding signal (z-score)", "setting": "GalNAc(b1-4)GlcNAc", "value": 0.026}, {"measurement": "glycan array binding signal (z-score)", "setting": "[6]", "value": -0.385}, {"measurement": "glycan array binding signal (z-score)", "setting": "[7]", "value": 0.311}, {"measurement": "glycan array binding signal (z-score)", "setting": "[8]", "value": 1.24}, {"measurement": "glycan array binding signal (z-score)", "setting": "GalNAc(b1-4)GlcNAc6S", "value": -0.402}, {"measurement": "glycan array binding signal (z-score)", "setting": "GalNAc(b1-6)GalNAc", "value": 0.429}, {"measurement": "glycan array binding signal (z-score)", "setting": "GalNAc3S(b1-4)GlcNAc", "value": -0.296}, {"measurement": "glycan array binding signal (z-score)", "setting": "GalNAc3S(b1-4)GlcNAc3S", "value": -0.331}, {"measurement": "glycan array binding signal (z-score)", "setting": "[9]", "value": -0.987}, {"measurement": "glycan array binding signal (z-score)", "setting": "GalNAc4S6S(b1-4)GlcNAc", "value": -0.49}, {"measurement": "glycan array binding signal (z-score)", "setting": "GalNAc6S(b1-4)GlcNAc", "value": -0.519}, {"measurement": "glycan array binding signal (z-score)", "setting": "Glc(a1-4)Glc", "value": -0.248}, {"measurement": "glycan array binding signal (z-score)", "setting": "[10]", "value": -0.331}, {"measurement": "glycan array binding signal (z-score)", "setting": "Glc(a1-6)Glc(a1-6)Glc", "value": -0.318}, {"measurement": "glycan array binding signal (z-score)", "setting": "[11]", "value": -0.391}, {"measurement": "glycan array binding signal (z-score)", "setting": "Glc(b1-4)Glc", "value": -0.334}, {"measurement": "glycan array binding signal (z-score)", "setting": "Glc(b1-6)Glc", "value": -0.27}, {"measurement": "glycan array binding signal (z-score)", "setting": "GlcA(b1-3)Gal", "value": -0.373}, {"measurement": "glycan array binding signal (z-score)", "setting": "GlcA(b1-3)GlcNAc", "value": -0.357}, {"measurement": "glycan array binding signal (z-score)", "setting": "GlcA(b1-6)Gal", "value": -0.264}, {"measurement": "glycan array binding signal (z-score)", "setting": "[12]", "value": -0.196}, {"measurement": "glycan array binding signal (z-score)", "setting": "[13]", "value": -0.283}, {"measurement": "glycan array binding signal (z-score)", "setting": "[14]", "value": -0.324}, {"measurement": "glycan array binding signal (z-score)", "setting": "[15]", "value": -0.893}, {"measurement": "glycan array binding signal (z-score)", "setting": "[16]", "value": -0.506}, {"measurement": "glycan array binding signal (z-score)", "setting": "[17]", "value": -0.247}, {"measurement": "glycan array binding signal (z-score)", "setting": "[18]", "value": -0.351}, {"measurement": "glycan array binding signal (z-score)", "setting": "[19]", "value": -0.458}, {"measurement": "glycan array binding signal (z-score)", "setting": "[20]", "value": -0.454}, {"measurement": "glycan array binding signal (z-score)", "setting": "[21]", "value": -0.417}]}
